In PubChem BioAssay AID686979 (National Center for Advancing Translational Sciences (NCATS), 2013):
Hit rate of the full screen: of about 420,000 compounds, about 50,000 (12%) were called active. Inconclusive results, whose numbers are uncertain, are shown with a selection of clear calls. Calls follow the shape of the dose curve; as a rule, active = well fitted inhibition curve with a large enough effect; inconclusive = small, poorly fitted or top-dose-only effect; inactive = flat fitted curve, though single readings scatter. No potency is given beside an inconclusive call; the fits are too rough.

Assay: qHTS for Inhibitors of human tyrosyl-DNA phosphodiesterase 1 (TDP1): qHTS in cells in presence of CPT; also: nearly all actives have a fitted effect of over 55% in size
Details: chicken DT40 Tdp1-/-;hTDP1 cells + 20 nM CPT, ATP luminescence, 48 h; activity change, negative = growth inhibition: at 46.2 µM (top of the series) unless noted
Procedure, shortened: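 Chicken DT40 Tdp1-/- cells complemented with human TDP1, 400 cells/well, exposed to compounds plus 20 nM camptothecin for at least 48 h at 37 C; viability read as ATP content by CellTiter-Glo luminescence.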
% is scaled to controls: 0 for no effect and ±100 for the full control effect; potency is read from the fitted curve at half-maximal effect; tags tell the direction and shape of the fitted curve.

SMILES	activity change, negative = growth inhibition	Potency
CCOC(=O)C1(C(N)=O)OC1(c1ccc(Cl)cc1)c1ccccc1Cl (centres undefined)	inactive: 3.37%	–
COc1ccc(Cl)cc1NC(=O)c1c(C(=O)Nc2cccc(C)c2C)sc2nc(C)cc(=O)n12	–	inconclusive [inhibitor, single point]
O=C(C[n+]1ccnc2ccccc21)c1ccc(Br)cc1	–	inconclusive [inhibitor, single point]
O=C(Nc1cccnc1)c1cccc(S(=O)(=O)N2CCCC2)c1	–	inconclusive [inhibitor, single point]
CCOC(=O)c1cc(-c2ccc(C)cc2)n(CC(=O)Nc2cccc(C(C)=O)c2)c1C	inactive: -20.9%	–
COc1cccc(CNC(=O)c2cccnc2Sc2ccc(C)cc2C)c1	–	inconclusive [inhibitor, single point]
Cc1ccc(NC(=O)C(OC(=O)c2ccc(NC(N)=O)cc2)c2ccccc2)cc1Cl (centres undefined)	–	inconclusive [inhibitor, single point]
O=C(c1ccncc1)N1CCN(S(=O)(=O)c2ccc3ccccc3c2)CC1	inactive: -17.3%	–
O=C(Nc1ccccc1)c1ccc(NCc2ccco2)c(S(=O)(=O)N2CCOCC2)c1	inactive: -15.2%	–
Cc1cccc(N2CCN(C(=O)c3ccccc3NC(=O)C3CC=CCC3C(=O)O)CC2)c1 (centres undefined)	–	inconclusive [inhibitor, partial curve, poor fit]
CCOC(=O)N1CCN(C(=O)c2noc3c2COc2ccccc2-3)CC1	–	inconclusive [inhibitor, single point]
Cc1ccc(C(=O)c2cn(Cc3ccc(F)cc3)c3nc(C)ccc3c2=O)cc1	–	active: 16.4 µM
N/C(=N\S(=O)(=O)c1cc(C(F)(F)F)cc(C(F)(F)F)c1)c1ccccc1	–	inconclusive [inhibitor, single point]
C[C@@H]1CN([C@@H](C)CO)S(=O)(=O)c2ccc(Br)cc2O[C@@H]1CN(C)C(=O)c1ccc(F)cc1	–	active: 20.6 µM
Cc1ccc2nc(NC(=O)c3cc(-c4ccco4)nc4ccccc34)sc2c1	–	inconclusive [inhibitor, single point]
Cn1ncc2c(O/N=C(\N)c3ccc(C(C)(C)C)cc3)ncnc21	–	active: 2.59 µM
O=C(Nc1cccc(F)c1)N1CC[C@@]2(CCCN(C(=O)c3ccncc3)C2)C1	inactive: 7.11%	–
COc1ccccc1CNC(=O)c1ccc(-c2ccccc2C(F)(F)F)o1	–	active: 20.6 µM
CCNc1ccc(C(=O)OCC(=O)c2cc(C)n(Cc3ccc4c(c3)OCO4)c2C)cc1[N+](=O)[O-]	–	inconclusive [inhibitor, partial curve]
COc1ccc2nc(NC(=O)NC3CCCCC3)sc2c1	–	inconclusive [inhibitor, single point]
Cc1nc2ccc(C(C(F)(F)F)(C(F)(F)F)C(F)(F)F)cc2[nH]1	–	inconclusive [inhibitor, single point]
COc1ccc(/C=C/c2nnc(NC(C)=O)s2)cc1	inactive: 4.7%	–

SMILES	activity change, negative = growth inhibition	Potency
CC1(C)CC(=O)c2cc(C(=O)Nc3ccc(Br)cc3)c(=O)n(-c3ccc(Cl)cc3)c2C1	inactive: -1.32%	–
COc1ccc(-n2nnnc2SCC(=O)c2ccc3c(c2)OCCO3)cc1	–	inconclusive [inhibitor, single point]
COc1ccc(Cl)cc1NC(=O)CSc1nc(Nc2ccccc2)nc(N2CCOCC2)n1	–	inconclusive [inhibitor, single point]
CC(=O)N1c2ccc(S(=O)(=O)NCCC(=O)NCc3ccc(N(C)C)cc3)cc2CC1C (centres undefined)	–	inconclusive [inhibitor, single point]
COc1ccc(CCNS(=O)(=O)c2cn(C)nc2C)cc1	inactive: -18.1%	–
CC(/C=N/NC(=O)Cc1cccn1C)=C\c1ccccc1	–	inconclusive [inhibitor, single point]
Nc1nnc(SCCCC(=O)c2ccccc2)s1	–	inconclusive [inhibitor, single point]
CC1=CC(=O)N(c2ccn(C)n2)C1=O	–	inconclusive [inhibitor, partial curve, poor fit]
Cc1ccccc1OCc1nc2c3cnn(-c4ccccc4Br)c3ncn2n1	–	inconclusive [inhibitor, single point]
CN[C@H]1C[C@H]2c3[nH]c4ccc(-c5cccc(C)c5)cc4c3CCN2C[C@H]1[C@H](C)O	–	active: 7.31 µM
Oc1ccc(C=Nc2ccc(N3CCOCC3)cc2)c(O)c1	inactive: -22.4%	–
Cc1oc(-c2ccccc2F)nc1Cn1c(SCc2ccccc2F)nc2ccncc21	–	inconclusive [inhibitor, single point]
CC(C)N(C(=O)CSc1nc2c([nH]1)c(=O)n(C)c(=O)n2C)c1ccccc1	–	inconclusive [inhibitor, single point]
Cc1ccc(S(=O)(=O)n2ccc3c(OCCOCCNCc4ccc(F)cc4)cccc32)cc1	–	inconclusive [inhibitor, single point]
CCn1cc2nc(SCc3cc(C)ccc3C)n(Cc3ccc(C)cc3)c(=O)c2n1	–	active: 16.4 µM
COc1ccc(S(=O)(=O)Nc2cc(C(C)C)c(O)cc2C)cc1	–	inconclusive [inhibitor, single point]
O=C(Nc1nccs1)c1cn(-c2ccccc2)nc1-c1ccccc1	–	inconclusive [inhibitor, single point]
CCOc1cc(N2C(=O)CC3CS(=O)(=O)CC32)c(OCC)cc1NC(=O)c1ccccc1 (centres undefined)	–	inconclusive [inhibitor, single point]
COc1ccccc1N1CCN(C(=O)CCSCc2ccccc2F)CC1	–	inconclusive [inhibitor, partial curve, poor fit]
COc1cc(CNC2CCCC2)cc(OC)c1OC	inactive: 4.59%	–
OC(COc1ccc(-c2ccccc2)cc1)CN1CCCCC1 (centres undefined)	–	inconclusive [inhibitor, single point]
COc1ccc(Cc2nnc(NC(=O)c3cc(OC)cc(OC)c3)s2)cc1	–	inconclusive [inhibitor, single point]
